The campaign covered roughly 310,000 compounds. About 2,200 (0.71%) showed an effect of 50% or more. Effects have a minus sign here. Some of the results follow.

Sequence of human ether-à-go-go-related gene (hERG) potassium channel (Q12809 whole entry, looked up): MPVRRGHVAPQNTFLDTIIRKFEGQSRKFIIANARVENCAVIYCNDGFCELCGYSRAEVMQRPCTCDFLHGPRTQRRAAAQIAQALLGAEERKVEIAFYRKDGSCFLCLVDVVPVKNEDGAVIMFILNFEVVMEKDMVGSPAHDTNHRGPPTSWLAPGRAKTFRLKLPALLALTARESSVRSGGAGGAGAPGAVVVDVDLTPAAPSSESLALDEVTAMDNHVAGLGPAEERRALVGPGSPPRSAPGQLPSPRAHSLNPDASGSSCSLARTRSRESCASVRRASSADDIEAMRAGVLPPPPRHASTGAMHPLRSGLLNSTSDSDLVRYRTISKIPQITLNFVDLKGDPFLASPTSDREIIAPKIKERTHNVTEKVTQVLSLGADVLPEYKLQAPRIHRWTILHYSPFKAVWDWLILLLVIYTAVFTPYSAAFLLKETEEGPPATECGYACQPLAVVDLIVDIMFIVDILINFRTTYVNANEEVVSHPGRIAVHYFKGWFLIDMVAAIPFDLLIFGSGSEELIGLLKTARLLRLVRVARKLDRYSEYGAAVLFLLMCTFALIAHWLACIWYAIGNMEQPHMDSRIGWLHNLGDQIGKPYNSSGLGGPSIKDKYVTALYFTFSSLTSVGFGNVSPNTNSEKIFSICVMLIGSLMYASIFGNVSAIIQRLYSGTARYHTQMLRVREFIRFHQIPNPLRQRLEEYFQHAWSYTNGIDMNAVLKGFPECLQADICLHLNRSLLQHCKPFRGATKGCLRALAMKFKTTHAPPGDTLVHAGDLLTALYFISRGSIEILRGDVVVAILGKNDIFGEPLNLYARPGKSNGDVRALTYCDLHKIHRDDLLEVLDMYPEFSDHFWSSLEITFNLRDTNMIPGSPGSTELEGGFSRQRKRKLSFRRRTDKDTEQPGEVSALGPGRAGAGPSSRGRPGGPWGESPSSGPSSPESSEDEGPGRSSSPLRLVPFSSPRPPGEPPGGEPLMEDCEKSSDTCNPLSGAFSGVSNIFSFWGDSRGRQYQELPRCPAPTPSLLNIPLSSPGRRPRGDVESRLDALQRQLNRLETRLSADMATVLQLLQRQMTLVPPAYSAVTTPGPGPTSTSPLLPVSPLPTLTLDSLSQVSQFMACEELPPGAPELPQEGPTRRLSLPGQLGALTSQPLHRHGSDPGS

The test has as its target human ether-à-go-go-related gene (hERG) potassium channel (human, UniProt Q12809). Kind of test: primary screen, population patch clamp on CHO cells stably expressing hERG.
Regarding `CC1(C)CC(n2[nH]c(=O)c3c2NC(=O)CSC3c2ccccc2)CCO1` (centres unmarked), the “hERG current change (%, negative = inhibition) at 1uM” value came out at 10.5%.

Take `N#Cc1nc(-c2ccco2)oc1N1CCC(Cc2ccccc2)CC1`: the “hERG current change (%, negative = inhibition) at 1uM” value turned out to be 8.96%.

Turning to `COc1ccc(C(=O)NCc2nnc(SCC(=O)NC3CCCCC3)o2)cc1`, the “hERG current change (%, negative = inhibition) at 1uM” value amounted to 11.7%.

As for `Cc1cc(C)cc(C(=O)NC(CC(N)=O)c2ccc(N3CCC(Cc4ccccc4)CC3)c([N+](=O)[O-])c2)c1` (centres unmarked), the “hERG current change (%, negative = inhibition) at 1uM” value is 7.62%.

For `COC(=O)C1=C(C)NC(=O)/C1=C\N(C)C`, the “hERG current change (%, negative = inhibition) at 1uM” value is on record as 12.3%.

On to `Cc1nn(C)c(C(=O)N/N=C/c2cc3c(cc2Br)OCO3)c1Br`, for which the “hERG current change (%, negative = inhibition) at 1uM” value came to 7.14%.

Take `CC1=C(C(=O)OCC2CCCO2)C(c2ccccc2Cl)NC(=O)N1` (centres unmarked): the “hERG current change (%, negative = inhibition) at 1uM” value turned out to be 14.9%.

Regarding `Cn1c(=O)n(Cc2ccc(Cl)cc2)c(=O)c2c1nc1n2CCN1Cc1ccco1`, the “hERG current change (%, negative = inhibition) at 1uM” value is given as 8.92%.

On to `CNC(=O)c1[nH]cnc1C(=O)Nc1ccc(C)cc1`, for which the “hERG current change (%, negative = inhibition) at 1uM” value was 13.2%.

In the case of `O=C(Nc1ccc(N2CCCCC2)c(Cl)c1)c1ccc2c(c1)OCCO2`, the “hERG current change (%, negative = inhibition) at 1uM” value was 10.7%.

Take `O=C(CNC(=O)c1ccco1)OCc1ccc(C(=O)c2ccccc2)cc1`: the “hERG current change (%, negative = inhibition) at 1uM” value is 2.49%.

For `CC(CCCC(C)(C)O)NC(=O)c1ccc2oc(CCc3ccccc3)nc2c1` (centres unmarked), the “hERG current change (%, negative = inhibition) at 1uM” value came out at 12.2%.

With `Cc1ccc2c(c1)C1(SCCS1)C(=O)N2`, the “hERG current change (%, negative = inhibition) at 1uM” value turned out to be 13.5%.

Regarding `COCCn1c(SC(C)C(=O)NC2CC2)nnc1-c1cccc(C)c1` (centres unmarked), the “hERG current change (%, negative = inhibition) at 1uM” value is recorded as 3.11%.

Consider `Cc1occc1C(=O)N1CCCC(Nc2ccc(F)c(F)c2)C1` (centres unmarked), for which the “hERG current change (%, negative = inhibition) at 1uM” value stood at 2.94%.

Consider `O=C(COc1cccc(C(F)(F)F)c1)N1CCN(c2ccc(O)cc2)CC1`, for which the “hERG current change (%, negative = inhibition) at 1uM” value is 0.781%.

On to `Nc1nc(N)c2nc(CNc3ccc(C(=O)NC(CCC(=O)O)C(=O)O)cc3)cnc2n1` (centres unmarked), for which the “hERG current change (%, negative = inhibition) at 1uM” value is listed as 8.4%.

For the molecule `CCN(CC(=O)Nc1ccc(NC(C)=O)cc1)C(=O)c1n[nH]c(=O)c2ccccc12`, the “hERG current change (%, negative = inhibition) at 1uM” value was -41.2%.

Regarding `O=C(COc1ccccc1Br)NCc1ccccn1`, the “hERG current change (%, negative = inhibition) at 1uM” value was 2.65%.

For `CCOC(=O)CNC(=O)C12CC3CC(CC(C3)C1)C2`, the “hERG current change (%, negative = inhibition) at 1uM” value came to 20.8%.

For the molecule `Cc1ccc(NC(=O)Cn2nnc(C(=O)NCCc3ccccc3)c2N)c(C)c1`, the “hERG current change (%, negative = inhibition) at 1uM” value stood at 12.2%.

Consider `COc1ccc(NC(C)=O)cc1S(=O)(=O)Nc1cccc(S(=O)(=O)NC2=NCCC2)c1`, for which the “hERG current change (%, negative = inhibition) at 1uM” value is given as 8.91%.

For the molecule `CCOc1ccc(-n2c(N)c(C(=O)NCC3CCCO3)sc2=S)cc1` (centres unmarked), the “hERG current change (%, negative = inhibition) at 1uM” value stood at 5.33%.

On to `Cc1ccc(NC2=CC(=O)CC(C)(C)C2)c(N)c1`, for which the “hERG current change (%, negative = inhibition) at 1uM” value was 0.634%.

As to `CC1CC(C)CN(C(=O)c2ccc3c(c2)OCCO3)C1` (centres unmarked), the “hERG current change (%, negative = inhibition) at 1uM” value was 1.96%.

Regarding `Cc1ccc(S(=O)(=O)N(C)C)cc1NC(=O)CCNC(=O)c1ccccc1Cl`, the “hERG current change (%, negative = inhibition) at 1uM” value was found to be 14.3%.

With `CCCCn1c(N)c(N(CC(C)C)C(=O)c2oc3ccc(OC)cc3c2C)c(=O)[nH]c1=O`, the “hERG current change (%, negative = inhibition) at 1uM” value was 3.18%.

Consider `COC(=O)c1ccc(COc2ccc(-c3nnn(CC(N)=O)n3)cc2)cc1`, for which the “hERG current change (%, negative = inhibition) at 1uM” value was determined as 11.9%.

With `CC(CN(C)Cc1ccccc1)OC(=O)c1ccc(F)cc1.Cl` (centres unmarked), the “hERG current change (%, negative = inhibition) at 1uM” value came to 3.94%.

Turning to `COc1ccc(NC(=O)CN(C)S(=O)(=O)c2ccc(Br)s2)cc1`, the “hERG current change (%, negative = inhibition) at 1uM” value is on record as 15.7%.

On to `CCCCCCCNC(=O)COc1ccc2c(c1)C(=O)CC(C)(C)O2`, for which the “hERG current change (%, negative = inhibition) at 1uM” value was -1.67%.

Turning to `Cc1ccc2c(c1)c1c3n2CCCNC3CCC1` (centres unmarked), the “hERG current change (%, negative = inhibition) at 1uM” value is given as -15.3%.

For the molecule `COc1ccc(C(=O)NCC(=O)N/N=C/c2ccc([N+](=O)[O-])s2)cc1OC`, the “hERG current change (%, negative = inhibition) at 1uM” value is reported as -9.14%.

As to `Cc1cccc(-n2ncc3c(N4CCCC4)ncnc32)c1`, the “hERG current change (%, negative = inhibition) at 1uM” value turned out to be 17.7%.

In the case of `O=C(Cc1ccccc1)N1CCN(CC2CC3C=CC2C3)CC1.O=C(O)C(=O)O` (centres unmarked), the “hERG current change (%, negative = inhibition) at 1uM” value is reported as 3.48%.

`Cc1cc(/C=N/NC(=O)CC2(C)OCCO2)c(C)n1-c1ccc(Cl)c(Cl)c1`: the “hERG current change (%, negative = inhibition) at 1uM” value came out at 15%.

With `COc1ccc(S(=O)(=O)N2CC(C)N(C(=O)N(C)C)C2C)cc1` (centres unmarked), the “hERG current change (%, negative = inhibition) at 1uM” value was 16%.

With `COc1cc(-c2c(C#N)c(=O)[nH]c3c2c(C)nn3-c2ccccc2)ccc1O`, the “hERG current change (%, negative = inhibition) at 1uM” value is given as 17.3%.

With `CCOc1cccc(NC(=O)Cn2nc(-c3ccc4c(c3)OCCO4)ccc2=O)c1`, the “hERG current change (%, negative = inhibition) at 1uM” value worked out at 13.3%.

As for `COCCN1C(=O)C(CC(=O)Nc2ccc(C(C)=O)cc2)SC1=Nc1ccccc1` (centres unmarked), the “hERG current change (%, negative = inhibition) at 1uM” value amounted to 11%.

With `Cl.c1ccc(SCCCCN2CCOCC2)cc1`, the “hERG current change (%, negative = inhibition) at 1uM” value amounted to 9.91%.

With `Cc1ccc(S(=O)(=O)N2CCN(c3ccnc4cc(Cl)ccc34)CC2)cc1C`, the “hERG current change (%, negative = inhibition) at 1uM” value stood at 21.6%.

`Cc1cccc(OCC(=O)NNC(=O)Cn2c(=O)cnc3ccccc32)c1`: the “hERG current change (%, negative = inhibition) at 1uM” value is 12%.

As for `O=C(Nc1cccc(F)c1)Nc1ccc2c(c1)OCO2`, the “hERG current change (%, negative = inhibition) at 1uM” value worked out at 12.8%.

Take `CCOc1ccc(CCNC(=O)C2CC=CCC2C(=O)OC(C)C)cc1OCC` (centres unmarked): the “hERG current change (%, negative = inhibition) at 1uM” value is reported as 24.6%.

For the molecule `CC(C)[C@H](CO)Nc1nc(NCc2ccc(S(N)(=O)=O)cc2)c2ncn(C(C)C)c2n1`, the “hERG current change (%, negative = inhibition) at 1uM” value was 14.1%.

In the case of `O=C(c1cccc(C(F)(F)F)c1)C1CCCN(Cc2ccc(OCCO)cc2)C1` (centres unmarked), the “hERG current change (%, negative = inhibition) at 1uM” value is recorded as -18.2%.

Turning to `Cc1cc(C)c2c(CN3CCC(C)CC3)cc(=O)oc2c1C`, the “hERG current change (%, negative = inhibition) at 1uM” value was 11.5%.

Turning to `Cc1ccc(-n2ncc3c2ncn2nc(-c4ccco4)nc32)c(C)c1`, the “hERG current change (%, negative = inhibition) at 1uM” value was determined as 3.02%.

Consider `CSC1CCCCC1(O)CSc1nc2c(cc1C#N)CCCC2` (centres unmarked), for which the “hERG current change (%, negative = inhibition) at 1uM” value is 3.46%.

As for `CCCCC(=O)Nc1cc(C)c(NC(=O)c2ccco2)cn1`, the “hERG current change (%, negative = inhibition) at 1uM” value amounted to 14.6%.

With `CC1=C(C(=O)Nc2ccc(F)cc2)C(c2ccncc2)C2=C(CCCC2=O)N1` (centres unmarked), the “hERG current change (%, negative = inhibition) at 1uM” value is listed as -12.9%.

As to `COc1ccc(/C=N/NC(=O)c2cc(C)n(-c3ccccc3)c2C)cc1OC`, the “hERG current change (%, negative = inhibition) at 1uM” value is 2.73%.

Consider `CC(C)CCn1c(SCc2ccc(Cl)cc2)nc2c1c(=O)[nH]c(=O)n2C`, for which the “hERG current change (%, negative = inhibition) at 1uM” value worked out at 12.9%.

As for `C[C@H]1CCC(=O)N([C@H](COc2ccccc2)Cc2ccccc2)CC1`, the “hERG current change (%, negative = inhibition) at 1uM” value came to 1.3%.

For `O=C(c1ccco1)N1CCN(CC(=O)N2CCCc3c2c(=O)oc2ccc(O)cc32)CC1`, the “hERG current change (%, negative = inhibition) at 1uM” value came out at 3.45%.

The record behind these values is article PMC4336329 (PLoS ONE, 2015).
